# Data as given in ChEMBL document CHEMBL4888484, “Replenishing the malaria drug discovery pipeline: Screening and hit evaluation of the MMV Hit Generation Library 1 (HGL1) against asexual blood stage Plasmodium falciparum ,using a nano luciferase reporter read-out” (2022).
# The whole screen tested about 150,000 compounds, of which about 540 (0.36%) showed an effect of 50% or more. This is one part of the list.
# System: Plasmodium falciparum
# Test: Primary screen in NF54 nanoGlo assay, in single point, at 2uM, 72h; a lower Z score goes with more inhibition
# Assay type: functional, Erythrocyte
# Conditions: timepoint 72 hour
Compound,% Inhibition,Z score
Cc1ccc(NC(=O)c2cc(=O)[nH]c3ccccc23)nc1,-11%,1.65
C=CCOCCN[C@@H](C)c1cccc(O)c1,3%,-0.42
COc1cc(C(=O)N2CCC(OCC3CCCC3)CC2)ncn1,-21%,2.86
Cc1nc(N2CCc3noc(N)c3C2)ccc1C#N,-4%,0.81
CCC[C@H]1CN(Cc2cc3ccccc3n2C)C[C@@H]1NS(C)(=O)=O,-4%,0.83
COCCN(CCOC)C(=O)c1ccccc1F,7%,-0.91
O=C(COc1ccnc(C(F)(F)F)c1)NCc1ccccc1F,34%,-3.85
C[C@]1(O)C[C@@H](NS(=O)(=O)c2cc(Br)c(F)cc2F)C1,-5%,0.61
O=C(c1cccs1)N1CCC(NCCc2nc(C3CC3)no2)CC1,13%,-2.02
CCCN(CCO)C(=O)Nc1ccc(Br)cc1Cl,12%,-1.33
Cc1nc(C(NC(=O)Cc2ccc(Cl)cc2)C(C)O)cs1 (centres undefined),10%,-1.54
O=C(NCc1ccc(N2CCOCC2)cc1)C1CCN(c2cnc3nccnc3c2)CC1,-14%,2.22
CCC1CCCC(NC(=O)N(C)C(C)CS(C)(=O)=O)C1 (centres undefined),3%,-0.67
C[C@@H](CCc1cccc(F)c1)C(=O)NS(=O)(=O)c1cccnc1,-5%,0.94
COc1ccc2nc3ccccc3nc2c1NC(=O)c1ccccc1Br,-3%,0.3
CCc1noc(C)c1COc1ccccc1-c1nnc[nH]1,-3%,0.44
CNS(=O)(=O)CCn1ccnc1-c1ccc(-c2ccccc2)s1,-2%,0.32
COc1cccc(C(=O)/N=C(\NCc2ccc3c(c2)OCO3)OCC(C)C)c1,2%,-0.25
COCCN1CC2(CCC1=O)CCN(c1cc(C3CC3)ncn1)CC2,-16%,1.69
Cc1ccc(Cl)c(Oc2cc(N3CCN(S(=O)(=O)c4ccc(Cl)cc4)[C@@H](C)C3)ncn2)c1,-13%,1.53
CCOC1CC(NC(=O)CCc2ccncc2)C12CCCC2 (centres undefined),-12%,1.25
Cn1ncc2[nH]c(-c3ccc4ccccc4c3)nc21,-15%,1.71

Compound,% Inhibition,Z score
COC(=O)n1cnc2ncn(C)c(=O)c21,-33%,3.87
CCOC(=O)N1CCN(C(=O)c2nn[nH]c2Nc2ccccc2F)CC1,-6%,0.77
COc1cccc2c1OC[C@@H](C(=O)N1CCC(Cc3noc(C)n3)CC1)C2,-6%,1.14
O=C(CN1C(=O)[C@H]2CCCC2=Nc2ccccc21)Nc1ccc(Br)cc1F,1%,-0.16
Cc1ccc2ccc3cc(C(=O)NCCN4CCN(c5cccc(Cl)c5)CC4)[nH]c3c2n1,-8%,1.42
COc1cc(-c2nc(C(=O)NCC(C)C)cs2)ccc1OCc1ccccc1Cl,-6%,0.99
O=C(Cn1ccc2ccc(N3CCOCC3)nc21)NCc1ccc2c(c1)OCO2,-10%,1.63
Cc1ccc(C(CNC(=O)CCNC(=O)C2CC2C)N2CCCC2)o1 (centres undefined),-7%,1.1
CCN(CC)c1nc(C)cc(C(=O)NCCO)n1,-6%,0.96
COCCS(=O)(=O)Nc1ccc(O)cc1Br,-2%,0.46
Cc1nc(OCCOCC(F)F)c(Br)cc1C#N,-5%,0.92
CC(C)(C)N1Cc2cc(Br)ccc2OCC1=O,-9%,0.98
Cc1ccc(S(=O)(=O)N(CC#N)CC#N)cc1,2%,-0.25
COCCN1CCCC[C@H](CC(=O)Nc2ccc(Cl)cc2)C1=O,-14%,2.71
O=C(Cc1nc2ccccc2[nH]1)N[C@H]1COCC[C@@H]1Oc1ccccn1,-2%,0.3
O=C(NCCc1ccncc1)c1ccc(-c2cn(-c3ccccc3)cn2)cc1,6%,-0.73
O=C(NCC#CCN1CCCCCC1)c1ccc2c(c1)OCO2,-5%,0.94
COc1ccc(N2CCN(c3c4c(nc5nncn35)CCC4)CC2)cc1,6%,-0.72
CCN(Cc1ccoc1)c1nc(C)ns1,-9%,1.34
COCCc1ccnc(NC(=O)N2CCN(C)CCN(C)CC2)c1,-1%,0.14
Cc1cc(F)ccc1[C@@H]1CCCN1S(=O)(=O)c1cnn(C)c1,-8%,1.69
O=C(CCc1cnccn1)N[C@H]1CCOC[C@@H]1Oc1ccccn1,10%,-1.17

Compound,% Inhibition,Z score
O=C(NCC1CCN(c2ccccn2)CC1)c1ccc(Cl)s1,-12%,1.85
CCN(C)C(=O)CN1CCC[C@H](C(=O)c2ccc(Oc3ccccc3)cc2)C1,-5%,0.44
Clc1cc(Cl)cc(-c2ccc(CNCc3ccco3)o2)c1,-3%,0.4
CCO[C@H](C(=O)NCc1nnc2c(Cl)cc(C(F)(F)F)cn12)C1CC1,-5%,0.73
CN(C)C(=O)N1CCN(c2ncnc(-c3ccccc3)n2)CC1,7%,-0.67
CCOCC(=O)Nc1cc2c(cc1F)N(C)S(=O)(=O)N2C,-11%,1.66
CC1CCC(O)(CS(=O)(=O)Cc2nccs2)CC1 (centres undefined),-8%,1.13
O=C(c1ccc(F)cn1)N(c1ccccn1)C1CCCC1,-6%,1.08
CCN1CCN(Cc2snnc2C(C)C)[C@H]2CS(=O)(=O)C[C@H]21,-9%,1.14
Cc1nc2c(-c3ccncc3)nsc2c(=O)n1CC(=O)Nc1ccc(Cl)cc1,-3%,0.4
OC1CC2CCC(C1)N2c1nnc(C2CC2)o1 (centres undefined),2%,-0.24
CCN(C[C@H]1CCN(C(=O)Nc2ccc(C)cn2)C1)CC(F)(F)F,-12%,2.15
CCCNC(=O)N(CC(=O)N1CCN(c2ccc(-c3ccc(OC)cc3OC)nn2)CC1)CC1CC1,-14%,1.35
OCC1(NCc2cnc([C@@H]3CCCO3)s2)CCC1,-10%,1.87
CC(=O)N1CCC(N2CCC(Cc3ccc(COc4ccncc4)cc3)CC2)CC1,-17%,3.21
Cc1nnc2ccc(N[C@H]3[C@H](c4ccccc4)C3(C)C)nn12,-14%,1.88
O=C1NC2(CCCC2)C(=O)N1Cc1nnc(-c2ccc(Cl)cc2)o1,-35%,4.05
C[C@@H](CCn1cccn1)N1CCC(Oc2cc(Cl)ccc2C(=O)N2CCCCC2)CC1,-6%,1.24
CC[C@@H](CO)NC(=O)NC(c1ccc(F)c(F)c1)C(C)C (some centres undefined),7%,-0.95
CCCN1C[C@@H](Nc2nnc(C(C)(C)C)o2)CC1=O,-14%,1.83
Cc1ncccc1OCc1ncnn1C(C)(C)C,12%,-1.35
COC(=O)N1CC[C@H](NCc2cnc(-c3cccs3)s2)C1,-2%,0.24

Compound,% Inhibition,Z score
COc1ccc(Oc2c(CN(CC3CC3)C(C)=O)c(C)nn2-c2cccc(Cl)c2)cc1,16%,-1.92
CCn1nc(C)c(CN2CCC(OCc3ccc(F)cc3)CC2)c1C,-7%,0.65
Cn1cnn(-c2ccc(NCC#Cc3ccc(C(F)(F)F)cc3)cc2)c1=O,-6%,0.66
COC[C@@](C)(O)CNC(=O)c1ccsc1,-14%,2.07
Cc1cnc(N2CCC(NCCOc3ccccc3)CC2)s1,-2%,0.17
C#CC[C@H]1CCCN(c2nnnn2C2CC(COC)C2)C1 (some centres undefined),1%,-0.23
O=c1c2ccccc2nc2cc(-c3ccc(O)cc3)c(-c3ccccc3)nn12,39%,-4.85
Cc1oc(-c2cccc(Cl)c2)nc1CNC(=O)Nc1ccccc1C(F)(F)F,-7%,0.91
CC(C)(CO)CCCNC(=O)[C@@H]1Cc2cccc(F)c2O1,-1%,0.14
CCc1nc(C2CCN(C[C@H](O)COc3cc(C)ccc3Cl)CC2)n[nH]1,4%,-0.53
Cc1cccc(NC(=O)CN(C)CC(=O)N2CCC(Cc3ccccc3)CC2)c1C,-1%,0.13
Cc1ccc(Cl)cc1-n1nc(O[C@@H](C)C(=O)NCc2ccccc2F)ccc1=O,-6%,0.9
CCN(C(=O)c1cccc(-c2ccc3scnc3c2)c1)[C@H]1COC[C@@H]1O,-14%,1.5
CCc1ccc(CNC(=O)[C@@H]2COCC(=O)N2Cc2ccc(C)cc2)cc1,-9%,1.54
CC(C)(NC(=O)c1ccccc1)c1nc(-c2ccncc2)no1,-7%,0.97
CN1CCN2CCN(C(=O)Nc3ccc(Oc4ccccc4)cc3)C[C@@H]2C1,-1%,0.21
COC(=O)[C@H]1CCN(C(=O)CNc2cc(Cl)ccc2OC)[C@H]1C(C)C,-1%,0.08
O=C1Cc2ccccc2N1CCNC(=O)N1CCC[C@H]1C(F)F,4%,-0.79
Cc1cc(-c2nnc(NC(=O)Cc3cccs3)o2)n(C)n1,-12%,2.33
CC(=O)N1CC[C@H](CN(C)Cc2cnn(Cc3ccc(F)cc3)c2)C1,-1%,0.17
Cc1nc(-c2cc3c(s2)CCN(C(=O)c2ccon2)C3)cs1,-13%,1.89
